About 220 (0.56%) of roughly 39,000 compounds showed activity. Some of the results follow.
Each molecule was assayed on Escherichia coli K-12 BW25113 (assay: relative growth (OD600 normalised to plate interquartile mean) (fraction); higher = less growth inhibition, active = 0.2 or less). Conditions: 50 µM; LB; incubation time: overnight (16-24 h).
`CN(C)CCc1c[nH]c2ccc(CC3COC(=O)N3)cc12` (stereo not given) was tested, and the relative growth was inactive: 0.951. With `CCc1oc2ccccc2c1C(=O)c1cc(Br)c(O)c(Br)c1` the relative growth was inactive: 1.03. For `C[C@@H]1CN([C@H](C)CO)C(=O)c2cc(C#CCN(C)C)cnc2O[C@H]1CN(C)C(=O)c1ccc2c(c1)OCO2`, the relative growth was inactive: 1.01. For `CCN(CC)[C@H]1CCS(=O)(=O)C1`, the relative growth was inactive: 1. With `COCC(=O)N(C)C[C@H]1Oc2cc(C#Cc3cccnc3)ccc2S(=O)(=O)N([C@@H](C)CO)C[C@@H]1C` the relative growth was inactive: 0.99. `Cc1ccc(S(=O)(=O)Nc2ccc3c(c2)C(=O)N([C@@H](C)CO)C[C@@H](C)[C@H](CN(C)CC2CCCCC2)OCCCC[C@@H](C)O3)cc1` was tested, and the relative growth was inactive: 0.974. In the case of `C[C@@H]1CN([C@@H](C)CO)C(=O)c2cc(C#CCN(C)C)cnc2O[C@H]1CN(C)S(=O)(=O)c1ccccc1`, the relative growth is reported as inactive: 0.992. For `CN1C(=O)c2cc(NC(=O)c3ccc(C(F)(F)F)cc3)ccc2OC[C@H]2O[C@H](CC(=O)NC3Cc4ccccc4C3)CC[C@@H]21`, the relative growth was inactive: 1.04. In the case of `COc1ccc(NC(=O)N(C)C[C@H]2OCCCC[C@@H](C)Oc3ccc(NC(=O)Cc4ccccc4)cc3C(=O)N([C@H](C)CO)C[C@@H]2C)cc1`, the relative growth is reported as inactive: 0.989. With `O/N=C/c1c(Cl)cccc1Cl` the relative growth was inactive: 0.971. `C[C@@H]1CN([C@H](C)CO)C(=O)c2cc(NS(=O)(=O)c3cn(C)cn3)ccc2O[C@@H]1CN(C)C(=O)Nc1ccc2c(c1)OCO2` was tested, and the relative growth was inactive: 0.995. For `C[C@H](CO)N1C[C@H](C)[C@@H](CN(C)C(=O)Nc2cccc(F)c2)OCc2ccccc2-c2ccccc2C1=O`, the relative growth was inactive: 0.987. For `CC(C)OC[C@H]1Cn2c(nc3c2c(=O)n(C)c(=O)n3C)O1`, the relative growth was inactive: 0.995. In the case of `COc1ccc(CN(C)C[C@H]2OCCCC[C@H](C)Oc3ccc(NS(=O)(=O)c4ccc(F)cc4)cc3C(=O)N([C@@H](C)CO)C[C@@H]2C)cc1`, the relative growth is reported as inactive: 0.926. For `C[C@H](CO)N1C[C@H](C)[C@@H](CN(C)S(=O)(=O)c2ccc(F)cc2)Oc2c(NC(=O)Nc3cccc4ccccc34)cccc2C1=O`, the relative growth was inactive: 0.969. With `Cc1ccc(S(=O)(=O)N(C)C[C@H]2OCCCC[C@H](C)Oc3ccc(NC(=O)Nc4ccc(C(F)(F)F)cc4)cc3C(=O)N([C@H](C)CO)C[C@@H]2C)cc1` the relative growth was inactive: 1.02. With `Cc1noc(C)c1NC(=O)Nc1ccc2c(c1)C(=O)N([C@@H](C)CO)C[C@H](C)[C@@H](CN(C)S(=O)(=O)c1ccc(Cl)cc1)OCCCC[C@@H](C)O2` the relative growth was inactive: 0.988. `C[C@H]1CN([C@@H](C)CO)C(=O)c2cccc(NC(=O)c3cnccn3)c2O[C@@H]1CN(C)C(=O)NC1CCCCC1` was tested, and the relative growth was inactive: 1. With `C[C@@H]1CN([C@@H](C)CO)C(=O)Cc2cc(NC(=O)Nc3ccc4c(c3)OCO4)ccc2O[C@@H]1CN(C)Cc1ccc(Cl)c(Cl)c1` the relative growth was inactive: 1.02. With `C[C@@H]1CN([C@H](C)CO)C(=O)c2cc(NC(=O)Nc3cccc4ccccc34)ccc2O[C@@H]1CN(C)C(=O)Nc1cccc2ccccc12` the relative growth was inactive: 1.04. With `C[C@H](CO)N1C[C@H](C)[C@@H](CN(C)Cc2ccc(C(F)(F)F)cc2)OCCCC[C@H](C)Oc2ccc(NC(=O)c3ccncc3)cc2C1=O` the relative growth was inactive: 0.899. In the case of `C[C@H](CO)N1C[C@H](C)[C@H](CN(C)Cc2cccc3c2OCCCO3)OCc2ccccc2-c2ccccc2C1=O`, the relative growth is reported as inactive: 1.01. For `CCCC#Cc1ccc2c(c1)O[C@H](CN(C)Cc1ccc3c(c1)OCO3)[C@@H](C)CN([C@H](C)CO)S2(=O)=O`, the relative growth was inactive: 1.03. In the case of `COc1ccc(S(=O)(=O)N(C)C[C@H]2OCCCC[C@@H](C)Oc3ccc(NC(=O)C4CCCCC4)cc3C(=O)N([C@H](C)CO)C[C@@H]2C)cc1`, the relative growth is reported as inactive: 1.01. `C[C@@H]1CN([C@H](C)CO)S(=O)(=O)c2ccc(/C=C/c3ccccc3)cc2O[C@@H]1CN(C)C(=O)Nc1cc(F)ccc1F` was tested, and the relative growth was inactive: 0.997. `COc1ccc(NC(=O)N(C)C[C@@H]2OCCCC[C@H](C)Oc3ccc(NC(=O)Nc4c(C)noc4C)cc3C(=O)N([C@@H](C)CO)C[C@H]2C)cc1` was tested, and the relative growth was inactive: 1. In the case of `CC(C)CC#Cc1cnc2c(c1)C(=O)N([C@H](C)CO)C[C@H](C)[C@@H](CN(C)S(=O)(=O)c1cn(C)cn1)O2`, the relative growth is reported as inactive: 0.982. For `C[C@@H]1CCCCO[C@@H](CN(C)Cc2ccc3c(c2)OCO3)[C@H](C)CN([C@H](C)CO)C(=O)c2cc(NC(=O)Nc3cccc4ccccc34)ccc2O1`, the relative growth was inactive: 1.01. `Cc1ccc(S(=O)(=O)N(C)C[C@H]2Oc3cc(Br)ccc3S(=O)(=O)N([C@H](C)CO)C[C@@H]2C)cc1` was tested, and the relative growth was inactive: 1.02. `C[C@@H]1CCCCO[C@H](CN(C)Cc2ccc(Cl)c(Cl)c2)[C@@H](C)CN([C@H](C)CO)C(=O)c2cc(NC(=O)NC3CCCCC3)ccc2O1` was tested, and the relative growth was inactive: 0.991. `COc1ccc(NC(=O)N(C)C[C@@H]2Oc3ncc(C#CC(C)C)cc3C(=O)N([C@H](C)CO)C[C@H]2C)cc1` was tested, and the relative growth was inactive: 0.985. For `C[C@H](O)C#Cc1ccc2c(c1)O[C@H](CN(C)C(=O)CN(C)C)[C@H](C)CN([C@@H](C)CO)S2(=O)=O`, the relative growth was inactive: 1.01. `COCC(=O)N1C[C@H](C)[C@@H](OC)CN(C)C(=O)c2ccc(NC(=O)Nc3ccccc3)cc2OC[C@@H]1C` was tested, and the relative growth was inactive: 1.03. In the case of `C[C@H]1CN([C@@H](C)CO)C(=O)c2cc(NC(=O)Cn3cnnn3)ccc2O[C@H]1CN(C)S(=O)(=O)c1ccc(F)cc1`, the relative growth is reported as inactive: 1.01. With `COC[C@H](C)N1C[C@H](C)[C@@H](CN(C)Cc2ccc(Oc3ccccc3)cc2)Oc2c(NC(=O)c3ccncc3)cccc2C1=O` the relative growth was inactive: 1. With `O=C(C[C@@H]1C=C[C@@H](NC(=O)c2cccnc2)[C@H](CO)O1)NCc1ccncn1` the relative growth was inactive: 0.977. For `C[C@@H]1[C@@H]([Si](C)(C)F)[C@H](CC(=O)N(CCO)Cc2ccccc2)O[C@@]12C(=O)N(c1ccccc1)c1ccccc12`, the relative growth was inactive: 0.961. With `CS(=O)(=O)N1[C@@H]2Cn3c(cccc3=O)[C@H]1[C@@H](C(=O)NCc1ccccc1)[C@@H]2CO` the relative growth was inactive: 1. With `C[C@@H]1O[C@@H](O[C@@H]2[C@@H](O)[C@H](C)O[C@@H](OC[C@H]3O[C@@H](Oc4c(-c5ccc(O)c(O)c5)oc5cc(O)cc(O)c5c4=O)[C@@H](O)[C@@H](O)[C@@H]3O)[C@@H]2O)[C@H](O)[C@H](O)[C@H]1O` the relative growth was inactive: 1. With `C[C@H](CO)N1C[C@H](C)[C@H](CN(C)CC2CC2)Oc2c(NS(=O)(=O)c3ccccc3)cccc2C1=O` the relative growth was inactive: 1.01. For `C[C@@H]1CCCCO[C@H](CN(C)C(=O)c2ccncc2)[C@@H](C)CN([C@H](C)CO)C(=O)c2cc(NC(=O)CCCCCC(=O)Nc3ccccc3N)ccc2O1`, the relative growth was inactive: 0.986. In the case of `CCOC(=O)n1ncc(C#N)c1N`, the relative growth is reported as inactive: 0.988. With `O=C(C[C@H]1CC[C@@H]2[C@H](COC[C@H](O)CN2C(=O)c2ccc(F)cc2)O1)NCCCN1CCOCC1` the relative growth was inactive: 0.968. `CN(C)CC(=O)N[C@H]1CC[C@@H](CCn2cc(CN(C)C)nn2)O[C@@H]1CO` was tested, and the relative growth was inactive: 0.955. `CC[C@@](N)(C(=O)O)c1ccccc1` was tested, and the relative growth was inactive: 1.01. For `COc1ccc(S(=O)(=O)N(C)C[C@@H]2OCCCC[C@H](C)Oc3ccc(NC(=O)Nc4ccccc4)cc3C(=O)N([C@@H](C)CO)C[C@H]2C)cc1`, the relative growth was inactive: 1.03. `COc1ccc(C(=O)Nc2ccc(CN3C(=O)[C@@]4(O[C@@H](CC(=O)N5CCC[C@H]5CO)[C@H]([Si](C)(C)c5ccc(OC)cc5)[C@H]4C)c4ccccc43)cc2)cc1` was tested, and the relative growth was inactive: 0.998. With `CCC(C=CC(C)C1CCC2C3CCC4=CC(=O)CCC4(C)C3CCC12C)C(C)C` (stereo not given) the relative growth was inactive: 0.879. `C[C@@H]1CCCCO[C@@H](CN(C)Cc2ccccc2)[C@H](C)CN([C@H](C)CO)C(=O)c2cc(NC(=O)CCC(F)(F)F)ccc2O1` was tested, and the relative growth was inactive: 1.02. `Nc1ncnc2c1ncn2[C@H]1O[C@@H](COP(=O)(O)OP(=O)(O)OP(=O)(O)O)[C@@H](O)[C@@H]1O` was tested, and the relative growth was inactive: 0.997. In the case of `CNc1[nH]cnc(=S)c1N`, the relative growth is reported as inactive: 0.97. With `Cc1noc(C)c1S(=O)(=O)Nc1ccc2c(c1)CC(=O)N([C@@H](C)CO)C[C@@H](C)[C@@H](CN(C)CC1CC1)O2` the relative growth was inactive: 0.986. For `C=CC[C@@H](CC(=O)N(CCO)Cc1ccccc1)C(=O)N[C@H](COC(=O)[C@H](CC=C)NC(=O)OCC1c2ccccc2-c2ccccc21)c1ccccc1`, the relative growth was inactive: 1.01. `C[C@@H]1CN([C@H](C)CO)C(=O)Cc2cc(NC(=O)CCN3CCOCC3)ccc2O[C@H]1CN(C)S(=O)(=O)c1ccccc1` was tested, and the relative growth was inactive: 1. In the case of `COCC(=O)Nc1ccc2c(c1)OC[C@@H](C)N(Cc1ccccc1OC)C[C@@H](C)[C@@H](OC)CN(C)C2=O`, the relative growth is reported as inactive: 1.02. `Cc1noc(C)c1NC(=O)N(C)C[C@H]1Oc2ccc(NC(=O)Nc3ccc(C(F)(F)F)cc3)cc2CC(=O)N([C@@H](C)CO)C[C@@H]1C` was tested, and the relative growth was inactive: 0.973. In the case of `C[C@@H]1CCCCO[C@@H](CN(C)C(=O)C2CCCCC2)[C@H](C)CN([C@H](C)CO)C(=O)c2cc(NS(=O)(=O)c3cccs3)ccc2O1`, the relative growth is reported as inactive: 0.973. `CNC(=O)C(=O)Nc1cc(Cl)ccc1C#N` was tested, and the relative growth was inactive: 0.993. For `CN1C(CC(=O)c2ccccc2)CCCC1CC(O)c1ccccc1.Cl` (stereo not given), the relative growth was inactive: 1.05. For `C[C@@H]1CCCCO[C@@H](CN(C)S(=O)(=O)c2ccccc2)[C@H](C)CN([C@H](C)CO)C(=O)c2cc(NC(=O)c3ccccc3)ccc2O1`, the relative growth was inactive: 1.01.

— the supplement of paper PMC9446081
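Further: static incubation at 37 °C against the wild-type strain, values averaged over two biological replicates.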
